# Laboratory results from the supplement of paper PMC3334620.
# Over roughly 33,000 sequences, “E-score (-0.5 to 0.5)” has its median near -0.012; the highest 2% begin near 0.29. The list shows a part of the results.
# Molecular target: T1, Ybr033w (UniProt P38073)
# T1 sequence: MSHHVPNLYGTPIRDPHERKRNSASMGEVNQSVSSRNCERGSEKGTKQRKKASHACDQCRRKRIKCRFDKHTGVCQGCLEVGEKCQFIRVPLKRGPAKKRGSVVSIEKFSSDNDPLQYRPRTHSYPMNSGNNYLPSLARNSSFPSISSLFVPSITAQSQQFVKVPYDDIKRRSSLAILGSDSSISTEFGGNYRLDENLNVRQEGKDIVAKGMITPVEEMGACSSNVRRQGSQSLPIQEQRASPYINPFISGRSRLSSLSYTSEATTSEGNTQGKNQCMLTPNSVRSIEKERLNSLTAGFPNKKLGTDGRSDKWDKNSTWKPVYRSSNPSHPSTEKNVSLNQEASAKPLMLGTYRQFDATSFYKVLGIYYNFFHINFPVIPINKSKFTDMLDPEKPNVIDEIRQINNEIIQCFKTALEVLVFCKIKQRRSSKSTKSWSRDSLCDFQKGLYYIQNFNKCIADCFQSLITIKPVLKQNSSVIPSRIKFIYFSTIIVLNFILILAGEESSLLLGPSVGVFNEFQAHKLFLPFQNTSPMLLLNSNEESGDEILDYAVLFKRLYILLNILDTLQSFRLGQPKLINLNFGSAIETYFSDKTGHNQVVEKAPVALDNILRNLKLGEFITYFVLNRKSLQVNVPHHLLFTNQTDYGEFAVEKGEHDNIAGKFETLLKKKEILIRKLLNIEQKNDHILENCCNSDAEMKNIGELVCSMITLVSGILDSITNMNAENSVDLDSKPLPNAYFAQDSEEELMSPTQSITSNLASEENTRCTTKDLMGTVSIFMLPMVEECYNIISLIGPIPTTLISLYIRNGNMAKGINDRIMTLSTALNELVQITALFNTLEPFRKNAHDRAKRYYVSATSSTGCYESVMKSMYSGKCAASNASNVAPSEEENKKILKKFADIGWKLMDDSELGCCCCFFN
# Experiment: PBM E-score (8-mer binding enrichment) (E-score (-0.5 to 0.5)); higher = stronger / more preferred TF binding; most listed sequences are background and not binding sites
# Conditions: protein concentration: 200 nM; construct: GST-full length
# Outline: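 E-scores (a modified Wilcoxon-Mann-Whitney statistic) were assigned by the Universal PBM Analysis Suite to every ungapped eight-base word pooled with its reverse complement. The input came from universal all-10-mer Agilent arrays made double-stranded by primer extension and probed with GST-tagged yeast transcription factors at about 100-200 nM. Fluorescent anti-GST detected bound protein, and masliner normalised the scans.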
row,Sequence,PBM E-score
1,GCTGGGCA,-0.0135
2,TAGGCAGA,0.159
3,AGCGTGAA,-0.0452
4,AGGTCCTC,-0.0989
5,ATCTGACC,0.0609
6,ATTTACGA,0.224
7,GAGTGATC,-0.0135
8,GAGCGCGA,-0.00516
9,CACGGAAG,-0.0633
10,GCTGCTCC,-0.33
11,AACGTAGC,-0.21
12,ATGACTTA,0.179
13,CGCTGTAC,-0.195
14,CGCCGTCA,-0.0829
15,TCCGCTAA,-0.158
16,ACCCTTCT,-0.213
17,ACATGGGC,0.0373
18,CTGGATTA,0.309
19,TCGCTGCA,-0.178
20,TTACACAA,0.277
21,CTGTAGAC,0.0148
22,CGCGCGCG,0.0564
23,ATACTCGA,0.0384
24,GCTTAGAA,0.0531
25,AATCCATC,0.14

row,Sequence,PBM E-score
1,CTGTAGCA,-0.0279
2,GGCTCGGA,-0.197
3,CAAGCGAA,-0.0787
4,ATTTGGGG,-0.032
5,TCGGCCCA,-0.108
6,CTGGTTAC,-0.119
7,ATCTTAAT,0.196
8,CAAAGTTA,0.279
9,CCTTAGTC,-0.225
10,AGCAACTA,0.204
11,GAGGCGAC,-0.186
12,AAGGCCGG,-0.077
13,GGTAGGGA,-0.144
14,TCGTTACA,-0.00512
15,CCCTTAAA,0.0698
16,CCCATATC,-0.0327
17,ATTTCCAG,0.163
18,GCTTCTAA,-0.0251
19,CGCAACAA,0.0565
20,AAAACAAC,0.103
21,ATTGCTTC,0.0144
22,AAAATAAG,0.207
23,CACATAGG,0.0579
24,CCTCCATC,-0.224
25,CAGGTTGA,-0.13

row,Sequence,PBM E-score
1,GCGCCTCA,-0.158
2,CGAACGCA,0.129
3,AACCGGCA,-0.203
4,CACTCAAG,-0.128
5,ACATTTCT,0.146
6,AGGGCAAC,-0.106
7,CCATGCAG,-0.0588
8,ATCGCGGC,-0.0546
9,CGGAGTGC,-0.0705
10,AGCGTTTG,-0.0651
11,GGGCGGGA,-0.116
12,AGCAGCAA,-0.0645
13,ACAGGGGT,-0.304
14,AGGATCGC,-0.0037
15,CGAGTACA,0.0824
16,ACGACCGT,-0.264
17,GCAGGCAC,-0.352
18,ACCAACAC,-0.0108
19,CCGTCCAA,0.00517
20,GACTCCAC,-0.234
21,AGCTGCAC,-0.22
22,ACCCTTAA,-0.0676
23,ACTACCCT,0.0229
24,CTAAGAAA,0.185
25,TCGGGCCA,-0.193

row,Sequence,PBM E-score
1,AACTCACA,0.191
2,CCAACCAC,0.119
3,ACTCTTTG,-0.0406
4,CCCGCTAC,-0.0393
5,AGAAACAC,0.198
6,ACTTACAT,0.0223
7,ACCATAAC,0.0929
8,GACGTCAC,-0.199
9,AAAAGGAT,0.256
10,CACGTAAA,-0.0948
11,CCTCTGTC,-0.125
12,GAGTTCCA,0.0441
13,CTCAGTAC,-0.0532
14,ACTGGCTA,-0.258
15,AGCGTGCC,-0.184
16,CGTTTCTC,0.00507
17,CGCCCCAA,-0.118
18,GCTGTCCC,-0.22
19,AGGAGTAG,-0.0617
20,AGATAGGA,0.00058
21,ACATCGAA,0.144
22,CATAAAAG,0.0715
23,CCACCTAC,-0.216
24,AACTCCAA,0.169
25,AGGACCAA,-0.0664

row,Sequence,PBM E-score
1,CAACAAGA,0.214
2,ATGGATGG,-0.187
3,CGGCTCGA,0.118
4,ATTACCGG,-0.0592
5,CATCCTGG,0.131
6,TCTAGTAA,0.171
7,ACAGCCGT,-0.0948
8,CGTAGGAA,-0.00832
9,CCATTGGC,-0.144
10,AGTTTCGA,0.137
11,ATTAGCAG,0.0537
12,ATTACTAC,0.176
13,TCGCGCCA,0.0305
14,TCATTAGA,0.135
15,AGACCTGG,-0.159
16,ATGCTAGA,0.0828
17,ACCGAACC,-0.212
18,GGCGTATA,-0.054
19,AAGTTATA,0.166
20,ACGGAGAC,0.0475
21,GCTAGCGA,-0.161
22,ACAAAGCG,0.151
23,GATTAACA,0.396
24,ACCCGAGT,-0.0747
25,ACTAACCG,0.0897

row,Sequence,PBM E-score
1,ATAAGAAA,0.209
2,AACTTTCC,0.078
3,TACCTACA,0.0856
4,ATCGTAGA,-0.0122
5,TTATCGAA,0.244
6,CTAACTCC,-0.0896
7,CTTACGTA,0.014
8,AACGAGAA,0.0786
9,AACGAAAA,0.17
10,TAGTCGGA,0.209
11,ATGCTTTC,0.0556
12,GAACTTGA,0.181
13,ACGGACCG,-0.21
14,AAAAGAAG,0.21
15,GGTATTTA,0.125
16,CTATAGAA,0.22
17,GATGATCC,0.4
18,AGGTGGTG,-0.0778
19,CCGGAGAG,-0.195
20,CTAACCGC,-0.142
21,ACTCGGGC,-0.108
22,GTTGTCGA,-0.101
23,GATGCACA,-0.118
24,ATTTCCCC,-0.0347
25,AGCACATA,-0.00876

row,Sequence,PBM E-score
1,ATGATGTA,0.209
2,CGCTGGAG,-0.0626
3,CACGAACG,-0.0927
4,CTAACGTC,-0.0213
5,GAGGACTA,-0.0177
6,GAGTGACA,0.056
7,ACCGCCTG,-0.216
8,ATCTACCA,0.287
9,ATGCCTAA,0.0133
10,GCGGGAAC,-0.153
11,CCCACCAC,-0.0659
12,GATGGTGA,-0.00523
13,GACTGCGA,-0.13
14,AACCTCCA,-0.254
15,AATAAGCA,0.193
16,AGGGTCGC,0.00413
17,GAACGAGC,-0.2
18,ACGCCAAG,-0.315
19,CCGGGCTC,-0.323
20,AGTCTTGA,0.0495
21,ACTGGGGA,-0.232
22,ATACGCAA,0.108
